# Source: article PMC12820563, “FoxP3 forms a head-to-head dimer in vivo and stabilizes its multimerization on adjacent microsatellites”
# The other results are listed elsewhere or left out.
# Target: T1, MBP-FoxP1dN (Mus musculus, UniProt P58462 326-579)
# T1 sequence: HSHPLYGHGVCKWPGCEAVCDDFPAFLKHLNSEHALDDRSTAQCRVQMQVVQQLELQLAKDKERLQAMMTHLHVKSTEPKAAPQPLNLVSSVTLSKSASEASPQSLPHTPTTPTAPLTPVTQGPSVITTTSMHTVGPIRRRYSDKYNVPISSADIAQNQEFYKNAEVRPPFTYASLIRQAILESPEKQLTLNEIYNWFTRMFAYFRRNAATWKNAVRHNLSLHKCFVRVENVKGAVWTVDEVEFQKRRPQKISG
# Assay: PD-seq (MBP pull-down with sequencing); 20 mM Tris-HCl pH 7.5, 100 mM NaCl, 1.5 mM MgCl2, 0.4 uM protein, 0.1 uM dsDNA library, 30 min, room temperature, amylose pull-down; high values mean tight binding
# Settings: protein: recombinant; tags: His6-MBP; chain copies: 2; dsDNA, one strand shown
# In short: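 In Tris pH 7.5 buffer with NaCl and MgCl2, 0.4 µM His6-MBP-tagged mouse FoxP3 or FoxP1 fragment lacking the N-terminus, from E. coli, met 0.1 µM Klenow-filled double-stranded degenerate DNA library for 30 min at room temperature. Three washes on amylose resin followed capture of the complexes, then proteinase K release of DNA, PCR barcoding and Illumina sequencing. Binding is taken as pooled-replicate reads-per-million enrichment of pull-down relative to input.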
row,Sequence,binding signal
1,GATGATTGTTCTCCCAGCTGATGAATTCCCGCGATCGAGTAAACAAATTTTCCTAATCTTTCTGTTCAAGCGCCATCTAC,0.769 RPM ratio (pull-down/input)
2,GATGATTGTTCTCCCAGCTGATGAATTAAATAAGTCGAGTAAACAAATTTTCCTAATCTTTCTGTTCAAGCGCCATCTAC,1.29 RPM ratio (pull-down/input)
3,GATGATTGTTCTCCCAGCTGATGAATTCTCGCGCTCGAGTAAACAAATTTTCCTAATCTTTCTGTTCAAGCGCCATCTAC,0.835 RPM ratio (pull-down/input)
4,GATGATTGTTCTCCCAGCTGATGAATTTACAGTCTCGAGTAAACAAATTTTCCTAATCTTTCTGTTCAAGCGCCATCTAC,1.12 RPM ratio (pull-down/input)
5,GATGATTGTTCTCCCAGCTGATGAATTGATCCCTTCGAGTAAACAAATTTTCCTAATCTTTCTGTTCAAGCGCCATCTAC,1 RPM ratio (pull-down/input)
6,GATGATTGTTCTCCCAGCTGATGAATTAGGTTTATCGAGTAAACAAATTTTCCTAATCTTTCTGTTCAAGCGCCATCTAC,1.33 RPM ratio (pull-down/input)
7,GATGATTGTTCTCCCAGCTGATGAATTTCAGCATTCGAGTAAACAAATTTTCCTAATCTTTCTGTTCAAGCGCCATCTAC,1.13 RPM ratio (pull-down/input)
8,GATGATTGTTCTCCCAGCTGATGAATTTAGTATTTCGAGTAAACAAATTTTCCTAATCTTTCTGTTCAAGCGCCATCTAC,1.24 RPM ratio (pull-down/input)
9,GATGATTGTTCTCCCAGCTGATGAATTTTCCGTTTCGAGTAAACAAATTTTCCTAATCTTTCTGTTCAAGCGCCATCTAC,0.931 RPM ratio (pull-down/input)
10,GATGATTGTTCTCCCAGCTGATGAATTTTAGGCATCGAGTAAACAAATTTTCCTAATCTTTCTGTTCAAGCGCCATCTAC,1.03 RPM ratio (pull-down/input)
11,GATGATTGTTCTCCCAGCTGATGAATTTCCAATTTCGAGTAAACAAATTTTCCTAATCTTTCTGTTCAAGCGCCATCTAC,0.924 RPM ratio (pull-down/input)
12,GATGATTGTTCTCCCAGCTGATGAATTCCAGCATTCGAGTAAACAAATTTTCCTAATCTTTCTGTTCAAGCGCCATCTAC,0.998 RPM ratio (pull-down/input)
13,GATGATTGTTCTCCCAGCTGATGAATTAAGACTATCGAGTAAACAAATTTTCCTAATCTTTCTGTTCAAGCGCCATCTAC,0.891 RPM ratio (pull-down/input)
14,GATGATTGTTCTCCCAGCTGATGAATTATCACTGTCGAGTAAACAAATTTTCCTAATCTTTCTGTTCAAGCGCCATCTAC,0.971 RPM ratio (pull-down/input)
15,GATGATTGTTCTCCCAGCTGATGAATTGTGAGGGTCGAGTAAACAAATTTTCCTAATCTTTCTGTTCAAGCGCCATCTAC,0.893 RPM ratio (pull-down/input)
16,GATGATTGTTCTCCCAGCTGATGAATTTTGGCTGTCGAGTAAACAAATTTTCCTAATCTTTCTGTTCAAGCGCCATCTAC,0.892 RPM ratio (pull-down/input)

row,Sequence,binding signal
1,GATGATTGTTCTCCCAGCTGATGAATTTTCCGCGTCGAGTAAACAAATTTTCCTAATCTTTCTGTTCAAGCGCCATCTAC,0.973 RPM ratio (pull-down/input)
2,GATGATTGTTCTCCCAGCTGATGAATTGACACAATCGAGTAAACAAATTTTCCTAATCTTTCTGTTCAAGCGCCATCTAC,1.75 RPM ratio (pull-down/input)
3,GATGATTGTTCTCCCAGCTGATGAATTCAACCATTCGAGTAAACAAATTTTCCTAATCTTTCTGTTCAAGCGCCATCTAC,0.878 RPM ratio (pull-down/input)
4,GATGATTGTTCTCCCAGCTGATGAATTCTCTACTTCGAGTAAACAAATTTTCCTAATCTTTCTGTTCAAGCGCCATCTAC,0.907 RPM ratio (pull-down/input)
5,GATGATTGTTCTCCCAGCTGATGAATTCGGGACCTCGAGTAAACAAATTTTCCTAATCTTTCTGTTCAAGCGCCATCTAC,0.734 RPM ratio (pull-down/input)
6,GATGATTGTTCTCCCAGCTGATGAATTGATGTTATCGAGTAAACAAATTTTCCTAATCTTTCTGTTCAAGCGCCATCTAC,2.17 RPM ratio (pull-down/input)
7,GATGATTGTTCTCCCAGCTGATGAATTAAATTAGTCGAGTAAACAAATTTTCCTAATCTTTCTGTTCAAGCGCCATCTAC,0.901 RPM ratio (pull-down/input)
8,GATGATTGTTCTCCCAGCTGATGAATTAGAGGGATCGAGTAAACAAATTTTCCTAATCTTTCTGTTCAAGCGCCATCTAC,0.842 RPM ratio (pull-down/input)
9,GATGATTGTTCTCCCAGCTGATGAATTTCCACTCTCGAGTAAACAAATTTTCCTAATCTTTCTGTTCAAGCGCCATCTAC,0.82 RPM ratio (pull-down/input)
10,GATGATTGTTCTCCCAGCTGATGAATTCCCTCATTCGAGTAAACAAATTTTCCTAATCTTTCTGTTCAAGCGCCATCTAC,0.843 RPM ratio (pull-down/input)
11,GATGATTGTTCTCCCAGCTGATGAATTGTGATACTCGAGTAAACAAATTTTCCTAATCTTTCTGTTCAAGCGCCATCTAC,1.3 RPM ratio (pull-down/input)
12,GATGATTGTTCTCCCAGCTGATGAATTCCGATTGTCGAGTAAACAAATTTTCCTAATCTTTCTGTTCAAGCGCCATCTAC,1 RPM ratio (pull-down/input)
13,GATGATTGTTCTCCCAGCTGATGAATTGATTAAGTCGAGTAAACAAATTTTCCTAATCTTTCTGTTCAAGCGCCATCTAC,1.11 RPM ratio (pull-down/input)
14,GATGATTGTTCTCCCAGCTGATGAATTAGATATTTCGAGTAAACAAATTTTCCTAATCTTTCTGTTCAAGCGCCATCTAC,1.03 RPM ratio (pull-down/input)
15,GATGATTGTTCTCCCAGCTGATGAATTCAGTTGCTCGAGTAAACAAATTTTCCTAATCTTTCTGTTCAAGCGCCATCTAC,0.978 RPM ratio (pull-down/input)
16,GATGATTGTTCTCCCAGCTGATGAATTATGACAATCGAGTAAACAAATTTTCCTAATCTTTCTGTTCAAGCGCCATCTAC,1.38 RPM ratio (pull-down/input)
